The whole screen tested about 310,000 compounds, of which about 14,000 (4.5%) showed an effect of 50% or more. Effects have a minus sign here. The list shows a part of the results.
target: human ether-à-go-go-related gene (hERG) potassium channel (human, UniProt Q12809); test: primary screen, population patch clamp on CHO cells stably expressing hERG
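Also: peak tail current of the secondary pulse compared with the same well before compound.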

Chain of human ether-à-go-go-related gene (hERG) potassium channel (Q12809 whole entry, looked up): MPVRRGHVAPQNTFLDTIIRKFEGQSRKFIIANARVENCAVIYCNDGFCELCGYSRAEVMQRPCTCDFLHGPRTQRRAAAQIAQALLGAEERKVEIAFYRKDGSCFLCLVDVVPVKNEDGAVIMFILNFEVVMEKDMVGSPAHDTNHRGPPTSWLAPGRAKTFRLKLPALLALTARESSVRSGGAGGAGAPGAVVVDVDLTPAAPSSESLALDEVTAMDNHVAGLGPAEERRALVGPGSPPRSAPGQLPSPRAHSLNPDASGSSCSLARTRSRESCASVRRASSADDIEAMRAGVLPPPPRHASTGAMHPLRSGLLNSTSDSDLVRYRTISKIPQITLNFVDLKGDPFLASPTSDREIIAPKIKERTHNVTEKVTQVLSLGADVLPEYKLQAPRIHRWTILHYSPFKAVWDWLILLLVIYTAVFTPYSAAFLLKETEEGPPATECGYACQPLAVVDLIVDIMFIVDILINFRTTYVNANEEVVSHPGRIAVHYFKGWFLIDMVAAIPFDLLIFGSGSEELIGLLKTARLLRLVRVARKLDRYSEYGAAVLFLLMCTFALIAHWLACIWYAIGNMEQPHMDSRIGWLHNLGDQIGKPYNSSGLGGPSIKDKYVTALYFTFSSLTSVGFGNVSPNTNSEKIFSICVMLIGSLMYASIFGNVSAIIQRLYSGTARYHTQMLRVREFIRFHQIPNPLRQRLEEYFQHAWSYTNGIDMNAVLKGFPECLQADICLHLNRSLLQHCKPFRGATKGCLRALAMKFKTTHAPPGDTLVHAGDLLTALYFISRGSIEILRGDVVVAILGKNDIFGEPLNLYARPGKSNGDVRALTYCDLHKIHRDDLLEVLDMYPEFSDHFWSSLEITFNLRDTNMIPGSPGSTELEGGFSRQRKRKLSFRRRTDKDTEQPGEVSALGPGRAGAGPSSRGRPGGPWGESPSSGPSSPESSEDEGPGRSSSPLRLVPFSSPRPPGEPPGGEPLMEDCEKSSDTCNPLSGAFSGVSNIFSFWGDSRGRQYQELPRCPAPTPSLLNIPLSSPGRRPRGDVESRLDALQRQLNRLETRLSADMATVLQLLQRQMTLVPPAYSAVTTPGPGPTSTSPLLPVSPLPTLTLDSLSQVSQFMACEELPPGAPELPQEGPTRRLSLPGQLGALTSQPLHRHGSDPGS

SMILES	hERG current change (%, negative = inhibition) at 10uM
Cc1ccc(NC(=O)C2CC(=O)N(Cc3ccccc3)C2)nc1 (stereo not drawn)	8.8%
CCOC(=O)c1c(NC(=O)C(NCCN(C)C)c2ccccc2)sc2c1CCCC2 (stereo not drawn)	-73.2%
COc1ccc(CN(C(=O)c2ccco2)C2CCS(=O)(=O)C2)cc1 (stereo not drawn)	-1.27%
COc1cccc(-c2nn(-c3ccccc3)cc2CN(C)Cc2ccon2)c1	9.02%
COC(=O)C1=C(C)Nc2sc(C(N)=O)c(N)c2C1c1ccncc1 (stereo not drawn)	9.03%
O=c1c2ccccc2c2ccccc2c(=O)n1CC1CCCO1 (stereo not drawn)	-14.4%
COc1cccc2cc(C(C)N(CCCN3CCOCC3)C(=S)Nc3ccccc3C)oc12 (stereo not drawn)	-7.78%
Cc1ccc2c(c1)c(CC(=O)Nc1ccc(F)cc1)c(C(=O)O)n2C	1.38%
CCN(CC)CCCNC(=O)c1ccc2c3n(nc2c1)-c1ccc(Cl)cc1CO3	-30.8%
CC(c1ccccc1F)n1cc(C(=O)NCCCc2nc3ccccc3[nH]2)nn1 (stereo not drawn)	24.3%
CCn1nc(C)c(Br)c1Nc1ccc(Br)cc1	58.3%
Cc1c2ccccc2c(C)c2c1ccc1ccccc12	-13%
CSc1nc2c(cnn2-c2ccccc2)c(=O)n1N	0.928%
CCOc1ccc(NC(=O)COc2ccc(-n3cnnn3)cc2)cc1	-7.81%
CC(NCCS(=O)(=O)c1ccc(Cl)cc1)c1cccc(Cl)c1 (stereo not drawn)	-8.89%
O=C(NCc1cccc(Cl)c1)c1cccnc1	-11.9%
O=C1C2CCCN2C(c2ccc(F)cc2)N1c1nccs1 (stereo not drawn)	9.91%
CC(=O)C1=C(C)Nc2ncnn2C1c1ccc(Br)cc1 (stereo not drawn)	-12.2%
CCCCCC(=O)N1CC2(CC(c3cccc(NC(=O)[C@@H]4CCC(=O)N4)c3)=NO2)C[C@@H]1C(N)=O (stereo partly drawn)	15.2%

SMILES	hERG current change (%, negative = inhibition) at 10uM
COc1ccc(OCC(O)CNC(=O)c2cccs2)cc1 (stereo not drawn)	9.93%
CCN(CC(=O)Nc1c(F)cccc1F)C(=O)C1=COCCO1	-6.35%
N#CCCN1CCN(S(=O)(=O)c2ccc(S(=O)(=O)NC3CCCCC3)cc2)CC1	12.7%
CCOC(=O)Cn1cc(C(=O)c2ccccc2F)c2ccccc21	-71%
c1ccc(Nc2nc(N3CCCCC3)nc(N3CCCCC3)n2)cc1	-4.68%
CCCOc1ccc(CSc2nc3ccccc3[nH]2)cc1	-13.1%
Cc1cc(=O)oc2cc(NC(=O)C(C)Oc3cccc(Cl)c3)ccc12 (stereo not drawn)	14.8%
C(=C\c1ccccc1)/C=N/Nc1nc2ccccc2s1	27%
Cn1cc(Cl)nc1C(O)c1ccccc1 (stereo not drawn)	7.21%
O=C1Nc2ccccc2N(O)N1c1ccc(S(=O)(=O)N2CCOCC2)cc1	-4.56%
Cc1ccc2c(cnn2C(=O)CCCC(=O)NC(C)c2ccccc2)c1 (stereo not drawn)	-5.97%
CC(CCc1ccccc1)NC(=O)C1CCN(S(=O)(=O)N2CCOCC2)CC1 (stereo not drawn)	1.11%
CN(C)NC(=S)Nc1ccc(Cl)cc1	-4.72%
CC(OC(=O)CCCSc1nc2ccccc2s1)C(=O)NC(N)=O (stereo not drawn)	-4.64%
CCCOP(=O)(OCCC)c1c([N+](=O)[O-])cc(C(F)(F)F)cc1[N+](=O)[O-]	-7.84%
Cc1cc(/C=C2\SC(=Nc3ccccc3)NC2=O)c(C)n1-c1ccc(S(N)(=O)=O)cc1	7.84%
Cc1cc(NS(=O)(=O)c2ccc(NC(=O)C(C(C)C)N3C(=O)c4ccccc4C3=O)cc2)nc(C)n1 (stereo not drawn)	10.6%
CCOC(=O)C1CCN(c2c(Nc3ccc4c(c3)OCCO4)c(=O)c2=O)CC1	-7.32%
CC1(c2ccc(OCC(N)=O)cc2)NC(=O)NC1=O (stereo not drawn)	14.6%

SMILES	hERG current change (%, negative = inhibition) at 10uM
COc1cc(C2C(C#N)=C(N)Oc3cc(C)oc(=O)c32)cc(OC)c1OC (stereo not drawn)	9.69%
CN(c1ccc(C(=O)Nc2cccc([N+](=O)[O-])c2)cc1)S(C)(=O)=O	-0.357%
CCO[C@H]1OC(C(=O)N2CCCCCCC2)=C[C@@H](c2ccccc2)[C@@H]1CCCO	-8.39%
Cc1ccc(CNC(=O)c2cccnc2)cc1	16.4%
COc1cccc(CNC(=O)c2cccc(Br)c2)c1	-10.5%
Clc1ccc(CN(Cc2ccccc2)C(c2cccs2)c2nnnn2C2CCCC2)cc1 (stereo not drawn)	-2.14%
CCOc1ccc(/C=C/c2nc(C#N)c(NCCCN(C)C)o2)cc1	-46.3%
Cc1ccc(C(C)NC(=O)c2cccs2)cc1C (stereo not drawn)	8.12%
CCOC(=O)C1=C(C)N(CCCC(=O)O)C(=O)NC1c1ccccc1OC(=O)c1cccs1 (stereo not drawn)	10.8%
CCN(C(=O)COC(=O)CC1CCCCC1)c1c(N)n(Cc2ccccc2)c(=O)[nH]c1=O	-2.9%
c1ccc(CNc2ncnc3scc(-c4cccs4)c23)nc1	-34.9%
CCOc1ccc2nc(N3CCC(C(=O)N4CCN(C5CCCCC5)CC4)CC3)sc2c1	-46.1%
COc1ccc(C(=O)Nc2nc(C)cc(C)n2)cc1	11.8%
CCNc1nc(Oc2ccc(C(=O)OCC)cc2)nc(SC)n1	-3.76%
COCCn1c(=N)c(S(=O)(=O)c2ccc(Br)cc2)cc2c(=O)n3ccccc3nc21	-44.3%
COc1ccc2cnn(-c3ccc(OC(F)(F)Cl)cc3)c(=O)c2c1OC	6.28%
COc1ccccc1/C=C1\SC(=S)N(CCC(=O)Nc2ccc(C(=O)O)c(O)c2)C1=O	6.45%
COc1ccc(/C=N/NC(=O)c2cccc3ccccc23)c(OC)c1OC	5.47%
O=C(NC1CCCCC1)c1ccc(CS(=O)(=O)Cc2ccccc2F)o1	-19.6%
